Experimental data as given in PubChem BioAssay AID360 (National Center for Advancing Translational Sciences (NCATS), 2006).
Hit rate of the full screen: of about 48,000 compounds, about 550 (1.1%) were called active. Another 4% or so got no clear call; they are omitted. Cut-off read from the data, not from the text of the source: active = potency below about 15 µM; inconclusive = mostly about 16 µM to 33 µM; inactive = weaker than that. This is one part of the list.

The compounds below were run against Lysosomal acid glucosylceramidase (Homo sapiens) (UniProt P04062) (assay: Glucocerebrosidase). Conditions: purified enzyme, resorufin glucoside fluorescence (screen aimed at inhibitors), 20 min.
Outline: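 Compounds titrated against 0.2 nM normal enzyme, 30 uM resorufin beta-D-glucopyranoside substrate, citrate/phosphate buffer with taurocholate and tween-20, pH 5.9. Reaction ran 20 min at room temperature; fluorescence (Ex 548/Em 600) gave AC50.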
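Note: the screen sought inhibitors.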
Potency is the fitted concentration of half-maximal effect.

Sequence of UniProt P04062 (P04062 whole entry, looked up): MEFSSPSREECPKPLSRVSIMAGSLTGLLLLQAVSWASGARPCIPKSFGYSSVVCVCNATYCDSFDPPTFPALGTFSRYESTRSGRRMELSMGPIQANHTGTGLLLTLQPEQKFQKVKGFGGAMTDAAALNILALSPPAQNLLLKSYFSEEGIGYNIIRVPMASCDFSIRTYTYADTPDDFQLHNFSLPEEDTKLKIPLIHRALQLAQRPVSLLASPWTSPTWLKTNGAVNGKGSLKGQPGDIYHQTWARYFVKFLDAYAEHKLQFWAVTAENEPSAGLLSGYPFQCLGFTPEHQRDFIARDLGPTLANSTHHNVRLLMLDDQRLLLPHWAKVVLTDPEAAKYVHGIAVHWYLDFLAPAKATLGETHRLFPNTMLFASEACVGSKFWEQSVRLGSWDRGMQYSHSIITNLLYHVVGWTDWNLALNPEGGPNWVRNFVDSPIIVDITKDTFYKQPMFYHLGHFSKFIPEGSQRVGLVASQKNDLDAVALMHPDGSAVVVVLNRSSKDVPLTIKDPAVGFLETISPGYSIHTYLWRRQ

Potency, inactive:
Cc1ccc(C2C(C#N)=C(N)Oc3n[nH]c(C)c32)cc1 (stereo unspecified) > 76.9 µM, O=C(CSc1nnc(-c2ccco2)n1CC1CCCO1)c1ccccc1 (stereo unspecified) > 76.9 µM, CCS(=O)(=O)CCSc1nc(C)cc(C)n1 > 76.9 µM, CCc1c(C(=O)NC2CCCCC2)[nH]c(C)c1C(C)=O > 76.9 µM, O=C1C=C(NCCN2CCOCC2)CC(c2ccccc2)C1 (stereo unspecified) > 76.9 µM, COc1cccc(-n2c(SCC(N)=O)nc3c([nH]c4ccccc43)c2=O)c1 > 76.9 µM, Cn1cnnc1SCc1ccc(C(=O)n2ncc(C#N)c2N)cc1 > 76.9 µM, COc1ccccc1-c1cc(C(=O)Nc2c(F)cc(F)cc2Br)no1 > 76.9 µM, O=C(NCN1CCN(c2ccccc2F)CC1)c1ccccc1 > 76.9 µM, CCCCOCCCNC(=O)c1c(-c2ccccc2)noc1C > 76.9 µM, CCOc1ccccc1-n1c(SCC(=O)N(C(C)C)C(C)C)nnc1-c1cccnc1 > 76.9 µM, CCN(CC)CCCNC(=O)c1nn(-c2ccccc2OC)c(=O)c2ccccc12 > 76.9 µM, Cc1cc2c3c(c1)C1(C(=O)N3C(C)(C)CC2C)C(C#N)=C(N)Oc2n[nH]c(C)c21 (stereo unspecified) > 76.9 µM, Cc1cc(Cl)ccc1OCCCC(N)=O > 76.9 µM, CCOC(=O)c1cnn(-c2nc(CC)nc3sc4c(c23)CCC4)c1N > 76.9 µM, CCCCn1c(SCC(=O)NCCc2ccc(OC)c(OC)c2)nc2c1c(=O)n(C)c(=O)n2C > 76.9 µM, CC(=O)NC(Cc1ccccc1C)C(=O)NC1CCN(c2c3c(nc4ncnn24)CCC3)CC1 (stereo unspecified) > 76.9 µM, COCCN(CC(=O)Nc1ccccc1)S(=O)(=O)c1ccc(S(=O)(=O)N2CCCC2)cc1 > 76.9 µM, COc1ccccc1C(=O)NCCC(=O)N1CC(=O)Nc2ccccc21 > 76.9 µM, COC(=O)c1[nH]cnc1C(=O)c1ccccc1 > 76.9 µM, COc1ccc(C2NC(=O)CS2)cc1OC (stereo unspecified) > 76.9 µM, O=C(COC(=O)c1ccccc1NC(=O)c1ccco1)Nc1ccc2c(c1)OCO2 > 76.9 µM, Cc1cc2nc(-c3cccnc3SCC(=O)NCc3ccco3)[nH]c2cc1C > 76.9 µM, Cc1cc2c(cc1C)NC(c1ccccn1)C1=C(CC(C)(C)CC1=O)N2 (stereo unspecified) > 76.9 µM, Cc1sc(NC(=O)CN2CCN(c3ccccn3)CC2)c(C#N)c1C > 76.9 µM, O=C(O)C1CCC(CNCc2cccnc2)CC1 (stereo unspecified) > 76.9 µM, CCn1c(SCC(=O)c2ccccc2)nnc1-c1cc2cc(Br)ccc2o1 > 76.9 µM, COc1ccc2oc(=O)c(C(=O)N3CCN(c4ccccc4)CC3)cc2c1 > 76.9 µM, CCOc1cc(C2NC(=O)NC(O)(C(F)(F)F)C2C(=O)c2ccc(OC)cc2)ccc1O (stereo unspecified) > 76.9 µM, O=C(OC(C(=O)NCc1ccc2c(c1)OCO2)c1ccccc1F)c1ccco1 (stereo unspecified) > 76.9 µM, CCCn1c(SCC(=O)c2cc(OC)ccc2OC)nc2c1c(=O)n(C)c(=O)n2C > 76.9 µM, Cc1cc(Cl)ccc1OCC(=O)Nc1ccccc1N1CCOCC1 > 76.9 µM, CCCCC(NC(C)=O)c1nc2ccccc2n1CCCC (stereo unspecified) > 76.9 µM, Cc1ccc(-c2nnn(CCC(=O)Nc3ccc4c(c3)OCO4)n2)cc1 > 76.9 µM, COc1ccc(S(=O)(=O)N2CCN(Cc3ccc(Cl)cc3)CC2)cc1 > 76.9 µM, Cc1ccc(CN(C(=O)Cn2nnc3ccccc32)C(C(=O)NCc2ccco2)c2cccs2)cc1 (stereo unspecified) > 76.9 µM, CSc1nc2cc(F)c(F)cc2n1C > 76.9 µM, COc1cc(OC)c(C2CC(=O)N3CN(c4ccccc4C)CSC3=C2C#N)cc1OC (stereo unspecified) > 76.9 µM, O=C(CCNS(=O)(=O)c1cccc2nsnc12)NC1CCN(Cc2ccccc2)CC1 > 76.9 µM, c1coc(Cn2c(SCc3nc4ccccc4[nH]3)nnc2-c2cnccn2)c1 > 76.9 µM, O=C(COC(=O)c1cn(-c2ccccc2)nc1-c1cccs1)NC1CC1 > 76.9 µM, COc1ccc(NC(=O)CSc2nnc(CNC(=O)c3ccco3)n2-c2ccccc2OC)cc1 > 76.9 µM, Cc1cc(Cl)c(S(=O)(=O)Nc2ccc3c(c2)OCO3)cc1OCC(N)=O > 76.9 µM, C=CCNc1nc(NCCN2CCOCC2)nc(N2CCOCC2)n1 > 76.9 µM, NC(=O)c1nn(-c2ccccc2)nc1NC(=O)CN1CCCCC1 > 76.9 µM, Cc1ccsc1C1NC(=O)c2ccccc2N1 (stereo unspecified) > 76.9 µM, COc1ccc(NC(=O)Cn2cnc3c(cnn3-c3ccc(C)c(C)c3)c2=O)c(OC)c1 > 76.9 µM, Cn1c(SCC(=O)c2ccc(F)cc2)nnc1-c1cnccn1 > 76.9 µM, O=S(=O)(c1cccc(-c2cn3cccnc3n2)c1)N1CCOCC1 > 76.9 µM, CCOc1ccc(-c2nc(N)ncc2-c2ccccc2)c(O)c1 > 76.9 µM, Cc1cccc(OCCNc2nc3c(c(=O)n(C)c(=O)n3C)n2C)c1 > 76.9 µM, COc1ccccc1C(=O)n1nc(-c2ccco2)nc1N > 76.9 µM, CN(Cc1c(F)cccc1Cl)c1ccc(S(=O)(=O)N2CCOCC2)cn1 > 76.9 µM, O=S(=O)(c1ccccc1)N1CCSC1c1ccco1 (stereo unspecified), Cn1nc(C(=O)Nc2cccnc2)c2ccccc2c1=O > 76.9 µM, COc1ccc(N2CCN(C(=O)CCN3C(=O)c4ccccc4S3(=O)=O)CC2)cc1 > 76.9 µM, COCCCNC(=O)CCS(=O)(=O)Cc1ccc(C)cc1 > 76.9 µM, CCc1cc(Br)ccc1NC(=O)C1CCCO1 (stereo unspecified) > 76.9 µM, O=C1CC(Sc2nnnn2C2CCCCC2)C(=O)N1c1ccccc1 (stereo unspecified) > 76.9 µM, O=C(C1CCCN(S(=O)(=O)c2ccccc2)C1)N1CCN(c2ncccn2)CC1 (stereo unspecified) > 76.9 µM, Fc1ccccc1CCNc1nnnn1-c1ccccc1 > 15.4 µM, CC(=O)c1cccc(NC(=O)NC(C)c2ccncc2)c1 (stereo unspecified) > 76.9 µM, COCCNC(=O)CSc1nc2cc(OC)c(OC)cc2c(=O)n1Cc1ccc(OC)cc1 > 76.9 µM, COc1ccc(N2CCN(C(=O)CSc3nnc4ncccn34)CC2)cc1 > 76.9 µM, O=C(CSc1nnc(-c2ccccc2)o1)Nn1cnnc1 > 76.9 µM, O=C1CCCc2c1nc(-c1ccco1)n2O > 76.9 µM, CCN(Cc1ccccc1)C(=O)C1CCN(Cc2ccc(OC)c(OC)c2OC)CC1 > 76.9 µM, CCOC(=O)c1[nH]c(C)c(C(=O)N(C)Cc2ccccc2)c1C > 76.9 µM, Cc1nnc(Sc2nc3c(c(=O)n(C)c(=O)n3C)n2Cc2ccc(Cl)cc2)s1 > 76.9 µM, COc1ccccc1N1CCN(C(=O)CSc2nnc(NC(=O)C3CCC3)s2)CC1 > 76.9 µM, O=C(Nc1cccc(C(F)(F)F)c1)c1cccnc1N1CCCC1, CCN(CC)CCNC(=O)CS(=O)Cc1nc(-c2ccccc2Cl)oc1C (stereo unspecified) > 76.9 µM, OCc1n[nH]c(CO)n1 > 76.9 µM, O=C(NC1CCN(C(=O)N2c3ccccc3Sc3ccccc32)CC1)c1ccco1 > 76.9 µM, Cc1ccccc1NC(=O)CCC(=O)OCCCC(F)(F)C(F)(F)F > 76.9 µM, Cc1nc(N2CCN(c3ccccc3)CC2)[nH]c(=O)c1Cc1ccccc1 > 76.9 µM, CC(=O)n1cc(C2C(=O)CCCC2=O)c2ccccc21 > 76.9 µM, Cc1ccc(S(=O)(=O)NCCC(=O)OCn2nnc3ccccc3c2=O)cc1 > 76.9 µM, COC(=O)CSc1nnc(CSc2nc(C)cc(C)n2)n1Cc1ccco1 > 76.9 µM, Cc1onc(-c2ccccc2Cl)c1C(=O)Nc1cccnc1 > 76.9 µM, COC(=O)Nc1cc(C)nc2ccccc12 > 76.9 µM, CC(C)C(c1nnnn1Cc1ccc2c(c1)OCO2)N1CCN(c2ccccc2)CC1 (stereo unspecified) > 76.9 µM, Cc1cc(NC(=O)Cc2ccccc2)no1 > 76.9 µM, CCOc1cc(C2C3=C(CCCC3=O)NC3=C2C(=O)CCC3)cc(Cl)c1O > 76.9 µM, Cc1nnc(NC(=O)CSc2nnc(-c3ccc(S(=O)(=O)N4CCCC4)cc3)n2C)s1 > 76.9 µM, CCOC(=O)NC1(C(F)(F)F)C(=O)N(Cc2ccccn2)C2=C1C(=O)CC(C)(C)C2 (stereo unspecified) > 76.9 µM, CCOC(=O)c1sc2nc(CC(=O)OC)nc(NCCN3CCOCC3)c2c1C, Cc1cc(NC(=O)c2cc(-c3ccccn3)nc3ccccc23)no1 > 76.9 µM, CCOC(=O)Cc1csc(NC(=O)CSc2ncnc3c2cnn3-c2ccccc2Cl)n1 > 76.9 µM, CCCn1nc2ccccc2c1P(=N)(N1CCOCC1)N1CCOCC1 > 76.9 µM, O=c1c2cccnc2[nH]c(=S)n1CCC1=CCCCC1 > 76.9 µM
